Results taken from PubChem BioAssay AID1745853 (National Center for Advancing Translational Sciences (NCATS), 2022).
Some of the results follow. Shown are side measurements of this screen, not its main read-out; they come without a call.

Columns and labels:
Experiment in all cases: Primary Screen for Target Class Profiling of Small Molecule Inhibitors of Methyltransferases
[1] = target: Glycine N-methyltransferase (Homo sapiens) (UniProt Q14749); conditions: purified enzyme, MTase-Glo SAH luminescence; measured here: GNMT inhibition; at 40 µM; stronger effect = lower value
Summary of the method: (§1)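 Each enzyme was assayed with SAM and its substrate. SAH formation detected by MTase-Glo luminescence; single-point 40 uM screen[…].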

[2] = target: Guanidinoacetate N-methyltransferase (Homo sapiens) (UniProt Q14353); conditions: purified enzyme, MTase-Glo SAH luminescence; measured here: GAMT inhibition; at 40 µM; stronger effect = lower value
Summary of the method: as §1

[3] = target: Histamine N-methyltransferase (Homo sapiens) (UniProt P50135); conditions: purified enzyme, MTase-Glo SAH luminescence; measured here: HNMT inhibition; at 40 µM; stronger effect = lower value
Summary of the method: as §1

[4] = target: Nicotinamide N-methyltransferase (Homo sapiens) (UniProt P40261); conditions: purified enzyme, MTase-Glo SAH luminescence; measured here: NNMT inhibition; at 40 µM; stronger effect = lower value
Summary of the method: as §1

[5] = target: Phenylethanolamine N-methyltransferase (Homo sapiens) (UniProt P11086); conditions: purified enzyme, MTase-Glo SAH luminescence; measured here: PNMT inhibition; at 40 µM; stronger effect = lower value
Summary of the method: as §1
% is scaled to controls: 0 for no effect and ±100 for the full control effect.

SMILES | activity change, negative = inhibition [1] [%] | activity change, negative = inhibition [2] [%] | activity change, negative = inhibition [3] [%] | activity change, negative = inhibition [4] [%] | activity change, negative = inhibition [5] [%]
Cc1nn(CCO)cc1CN1CCN(C(=O)c2cc[nH]c2)CC(O)C1 (stereo not given) | -1.71 | -1.04 | 0.324 | -1.61 | -0.303
O=C(Cn1c(=O)c2ccc(Cl)cc2n2nncc12)NCc1ccc(F)cc1 | 1.09 | 1.35 | 7.82 | 4.71 | 0.456
C=C1CCC2C(C)(C(=O)O)CCCC2(C)C1CCC1=CCOC1=O (stereo not given) | 3.74 | 2.92 | 9.37 | -9.26 | 4.67
Cc1cc(OCCCS(C)(=O)=O)cc(C)c1-c1cccc(COc2ccc(C3=CC(=O)NS3=O)cc2)c1 (stereo not given) | -37.9 | 12.8 | -8.26 | -43.2 | -0.192
CC(=O)c1c(C)cccc1O[C@@H]1O[C@H](CO)[C@@H](O)[C@H](O)[C@H]1O | -0.051 | -2.56 | 10.3 | -15.8 | -11.4
COc1cccc(NC(=O)c2cc3n(n2)CC(C)(C(=O)NC2CCCCC2)N(C)C3=O)c1 (stereo not given) | 4.96 | 0 | 9.44 | 10.5 | 5.72
CS(=O)(=O)N1CCN2C(=O)N(C3CCCCC3)C[C@H]2C1 | -3.01 | -4.21 | -2.4 | -11.6 | -18.6
OC1(Cn2ccnc2)CCN(Cc2ccccc2Cn2cccn2)CC1 | 0.389 | 0.433 | -55.2 | -0.042 | -1.76
Cn1c(=O)c2ccc(C(=O)NC3CCCC3)cc2n2c(=O)n(Cc3cccc(Cl)c3)nc12 | 2.71 | 0 | 2.55 | -0.137 | 1.76
C/C=C(/C)C(=O)OC1CC(C)(C)CC2C3=CCC4C5(C)CCC(OC6OC(C)C(OC7OC(C(=O)O)C(O)C(OC8OC(CO)C(O)C(O)C8OC8OC(CO)C(O)C(O)C8O)C7O)C(O)C6O)C(C)(C)C5CCC4(C)C3(C)C(OC(=O)/C=C/C=C/C=C/CCC)C(OC(C)=O)C12CO (stereo not given) | 0 | -6.26 | 0.116 | -18.7 | 3.28
CCCCN1C(=O)c2cc3ccccc3n2CC1(C)C(=O)NC1CCCCCC1 (stereo not given) | 2.35 | 1.92 | 3.21 | -5.72 | -2.76
COc1cccc(CN2CCC[C@@H](O)[C@H](NC(=O)c3ccc(OCc4ccccc4)cc3)C2)c1 | -6.81 | -1.62 | -3.88 | -6.25 | -1.28
CCn1c(=O)n(CC)c2cc(S(=O)(=O)Nc3ccc(F)cc3)ccc21 | 13.7 | 2.38 | 13.6 | 1.67 | 9.63
O=C(N[C@H](Cc1cscn1)C(=O)N[C@@H](CC1CCCCC1)[C@@H](O)[C@@H](O)C1CC1)c1nc2ccccc2[nH]1 | -8.65 | -11.4 | -9.27 | -23.1 | -11
COc1cccc(CN2CCOC[C@H](O)C2)c1 | -6.83 | -10.3 | -1.79 | -20.9 | -15.8
COc1ccccc1OCCNC(=O)C1CCN(c2cc(C(F)(F)F)nc(C)n2)CC1 | -1.66 | -5.65 | -2.66 | -5.84 | -8.61
O=C(Cc1ccccc1)N1CCCC2(CC(c3cccc(C(F)(F)F)c3)=NO2)C1 (stereo not given) | -7.16 | -1.24 | -0.959 | -10 | -3.03
COc1cc(CN2CCN(c3noc(C(C)C)n3)CC2CCO)cc(OC)c1 (stereo not given) | -3.62 | 0.166 | 1.03 | -26.9 | 4.95
COc1ccc(C(=O)NCc2cccnc2)cc1C(=O)NCc1cccnc1 | 3.56 | 6.83 | 5.79 | -6.69 | 4.9
CC(C)c1cccc(C(C)C)c1N1C(=O)c2ccc(O)cc2C1=O | 1.34 | 5.78 | 3.02 | -5.77 | 5.96

SMILES | activity change, negative = inhibition [1] [%] | activity change, negative = inhibition [2] [%] | activity change, negative = inhibition [3] [%] | activity change, negative = inhibition [4] [%] | activity change, negative = inhibition [5] [%]
CC1(C(=O)NCc2ccccc2)Cn2c(ccc2-c2ccco2)C(=O)N1c1ccc(Cl)cc1 (stereo not given) | -11.7 | -1.05 | 2.49 | -11.2 | -4
COc1ccc(CNC(=O)C2(C)Cn3cnc(C(=O)NCc4ccccc4OC)c3C(=O)N2C2CC2)cc1 (stereo not given) | 0.935 | 0.388 | 13.7 | 2.96 | 7.93
COc1ccccc1-c1cc(C(=O)N2CCOCC2)nn2cccc12 | -5.05 | -4.72 | -2.83 | -8.8 | -3.02
Cc1ccc(C)c(S(=O)(=O)c2nnn3c2nc(N2CCCC2)c2ccccc23)c1 | -3.15 | 0 | 3.92 | -1.05 | -5.79
CC(C)CCn1c(=O)c2ccc(C(=O)NC(C)C)cc2n2c(=O)n(CC(N)=O)nc12 | 0.097 | 5.35 | -3.18 | 2.87 | 1.5
CC1CCN(S(=O)(=O)c2ccc3c(ccn3CC(=O)NCCc3ccc(Cl)cc3)c2)CC1 | -2.29 | -0.301 | -0.407 | -5.91 | -3.18
COc1ccc2c(c1)CCc1c-2n[nH]c1C(=O)Nc1ccc2c(c1)C(=O)N(C)C1=NCCN12 | -10.2 | 2.6 | -5.49 | 2.37 | 1.44
CCC(C)NC(=O)c1ccc2c(=O)n(Cc3ccccc3)c3nn(Cc4ccccc4C)c(=O)n3c2c1 (stereo not given) | 1.47 | 0 | -0.459 | 7.99 | 2.45
Cn1c(=O)n(C)c2cc(S(=O)(=O)Nc3ccccc3)c(Cl)cc21 | -0.917 | 4.28 | 0.984 | 6.91 | -2.33
CCOC(=O)c1cccc(NC(=O)C2=CC(C)(C)Oc3ccc(OC)cc32)c1 | -6.29 | -13.1 | -6.12 | -22.4 | -10.2
CCOc1ccc(CN2C(=O)c3cc4ccc(OC)cc4n3CC2(C)C(=O)NC2CCCCC2)cc1 (stereo not given) | 4.28 | 1.18 | 1.31 | -0.499 | -2.44
Cc1ccc(CNC(=O)N2CCn3cccc3C2Cc2ccccc2)cc1 (stereo not given) | 15.3 | 0 | 8.94 | 6.6 | 6.42
CCOC(=O)c1cc2n(n1)CC(C)(C(=O)NCc1ccccc1)N(Cc1ccc(F)cc1)C2=O (stereo not given) | -2.66 | -2.97 | 2.36 | 0.886 | -3.81
O=C(Cc1ccccc1)NCC1CCCCC(=O)N1 (stereo not given) | -1.7 | -1.73 | 0.773 | -0.435 | 1.01
COc1cccc(C(=O)Nc2ccc(-c3ccc(OC)nn3)cc2)c1 | -22.2 | -20.3 | -15 | -18.8 | -22.6
Fc1ccccc1-c1noc(N2CCCCC2)n1 | -32.8 | -37.3 | -32.5 | -42.5 | -47.3
COC(=O)c1ncn2c1C(=O)N(Cc1ccccc1Br)C(C)(C(=O)NC1CCCC1)C2 (stereo not given) | -1.18 | 1.06 | -14.3 | -4.21 | -7.22
O=C(Nc1ccc(Cl)cc1)Nc1cccc(-c2cccc(N3CCCC3)n2)c1 | 7.52 | -2.92 | 3.57 | -14 | 1.97
C=C1C(=O)O[C@H]2CC(=C)[C@H]3CC[C@@](C)(O)[C@@H]3CC12 (stereo not given in full) | -15.3 | -21.1 | -3.26 | -25.6 | -10.6
CCCN(CCC)S(=O)(=O)c1ccc2[nH]c(=O)[nH]c2c1 | -2.82 | 2.69 | -6.18 | -7.42 | -17.6

SMILES | activity change, negative = inhibition [1] [%] | activity change, negative = inhibition [2] [%] | activity change, negative = inhibition [3] [%] | activity change, negative = inhibition [4] [%] | activity change, negative = inhibition [5] [%]
CC1CCC(NC(=O)C2(C)Cn3c(nc4ccccc43)C(=O)N2Cc2ccccc2Cl)CC1 (stereo not given) | -0.17 | 2.73 | -3.25 | -1.82 | -5.49
COc1cccc(N2C(=O)c3cc4occc4n3CC2(C)C(=O)NC2CCCCC2)c1 (stereo not given) | -8.15 | -6.85 | -5.25 | -3.4 | -6.04
CCCN1C(=O)c2cc3ccccc3n2CC1(C)C(=O)NC1CCCCC1 (stereo not given) | -1.45 | 0.505 | 1.31 | 0.785 | -0.44
COc1cc(/C=N\NC(=O)c2ccc3c(c2)OCO3)ccc1OCc1ccccc1 | -3.27 | -6.14 | -81.1 | -31 | -11.1
COc1ccccc1CNC(=O)C1c2c(n(C)c3ccccc23)SCC(=O)N1Cc1ccccc1Cl (stereo not given) | 14.5 | 1.63 | 5.9 | 0.533 | 5.49
CCCCN1C(=O)c2ccccc2CC1(C)C(=O)NCc1ccc(Cl)cc1 (stereo not given) | 10.9 | 0 | 4.28 | 4.56 | 5.09
O=Nc1c(-c2c(O)[nH]c3ccccc23)[nH]c2ccccc12 | -39 | -21.6 | -22.1 | -33.1 | -25.5
COc1ccc2[nH]cc(CCNC(C)=O)c2c1 | -8.64 | 2.75 | -1.4 | -2.28 | 6.81
Cc1ccc2c(c1)c(-n1cccc1)c1n2CC(C)(C(=O)NC2CCCC2)N(Cc2cccs2)C1=O (stereo not given) | -18.2 | 1.91 | -10.2 | -25 | -6.35
CN1C(=O)c2cc(C(=O)NCc3ccccc3)nn2CC1(C)C(=O)NC1CCCC1 (stereo not given) | 8.59 | 1.24 | 8.31 | 12.9 | 6.89
CCCc1cc(N2CCC(NCc3c(F)cccc3Cl)CC2)nc(C)n1 | -3.1 | -1.41 | -5.51 | -3.66 | 2.73
COC[C@H]1CCCN1C(=O)C[C@@H]1O[C@H](CNS(C)(=O)=O)[C@@H](O)[C@H]1O | -1.64 | 2.25 | -0.337 | 1.04 | -0.307
Cc1cc(C(=O)N2CCc3ncnc(N4CCOCC4)c3CC2)n(C)n1 | -1.52 | -2.98 | -1.66 | -1.88 | -0.129
CC(C)Cn1c(=O)c2ccc(Cl)cc2n2c(SCC(=O)Nc3ccc(F)cc3)nnc12 | -6.73 | 4.37 | 1.34 | -12.1 | -2.27
CCOc1ccc(N2C(=O)c3nc4ccccc4n3CC2(C)C(=O)NCc2ccccc2)cc1 (stereo not given) | 2.11 | 0.613 | 6.82 | 10.9 | -1.29
Cc1ccc(NC(=O)c2cc3n(n2)CC(C)(C(=O)NC2CCCCC2)N(C)C3=O)cc1C (stereo not given) | 5.07 | 0 | 3.06 | 6.13 | 1.68
CN(C)CCN(Cc1ccccc1)C(=O)c1cc(-c2ccc(F)cc2)n2nc(C(C)(C)C)cc2n1 | -2.65 | -3.88 | -26.8 | -25 | -1.02
CN1C(=O)c2cc(C(=O)NCc3ccc(Cl)cc3)nn2CC1(C)C(=O)NCc1ccc(F)cc1 (stereo not given) | 0.748 | 4.78 | 2.81 | 4.18 | 0.41
COc1ccc(F)cc1-c1cccc(C(=O)NCC(=O)N2CCN(C)CC2)c1 | -2.72 | -4.3 | -0.637 | -12.9 | 5.95
Cc1ccccc1NC(=O)Cn1nc2n(C)c(=O)c3ccc(C(=O)NC4CCCC4)cc3n2c1=O | -1.01 | 4.29 | -0.718 | -2.31 | -0.852
